Reference: PubChem BioAssay AID602233 (National Center for Advancing Translational Sciences (NCATS), 2012)
Where “and” joins values, the source holds several entries; their conditions need not be identical. Identical values can stand only once. Out of some 380,000 compounds screened, about 170 (0.045%) were called active. The inconclusive results got no clear call from the source; some entries with a clear call stand among them for comparison. The call rests on the fitted dose curve; in most records, active means well fitted inhibition curve with a large enough effect; inconclusive means small, poorly fitted or top-dose-only effect; inactive means no such curve, though single readings can be large or run the other way. Potencies of inconclusive entries are doubtful fits and often do not repeat.

molecular target: Phosphoglycerate kinase, glycosomal (Trypanosoma brucei brucei) (UniProt P07378); experiment: qHTS Assay to Find Inhibitors of Phosphoglycerate Kinase; settings: PGK/GAPDH coupled, Kinase-Glo luminescence, 60 min; series mostly up to 57.5 µM; activity change, negative = inhibition: at the top concentration; further: nearly all actives have a fitted effect of over 60% in size
Description: Several species of the Trypanosomatidae family of parasitic protozoans cause a spectrum of diseases throughout the tropical and subtropical world. Sleeping sickness, caused by two subspecies of Trypanosoma brucei, is endemic to areas of sub-Saharan Africa, while Chagas disease, a manifestation of Trypanosoma cruzi infection, is prevalent throughout Central and South America. In addition, many species of Leishmania are responsible for a range of cutaneous and visceral diseases, causing ulcers, destructive lesions and kalaazar, a lethal infection of the viscera. Collectively, these organisms infect 30 million people worldwide (~500 million live in endemic areas), and account for ~130,000 deaths annually. Given their debilitating and prevalent nature, trypanosomatid parasites impose a heavy medical, economic and social burden on entire populations, primarily in the developing world. The problem is further exacerbated by the fact that existing treatments have progressed little in the past 50 years, and current drugs show high toxicity and poor efficacy. […] Blood-stream stages of T. brucei are entirely dependent on glycolysis as a source of ATP, and the tricarboxylic acid cycle and oxidative phosphorylation are both repressed. Glycolysis in axenically cultured T. cruzi, representing the intracellular pathogenic stage, is also essential for these parasites. […] Previous studies have shown that the glycolytic enzyme, phosphoglycerate kinase (PGK), is a viable target for drugs to kill these parasites. […] NIH Molecular Libraries Probe Production Network [MLPCN] NIH Chemical Genomics Center [NCGC] MLPCN Grant: R03 MH093212 PI Name: Malcolm Walkinshaw, University of Edinburgh
3ul of substrate/PGK buffer (columns 1,2,5-48) are dispensed into Greiner white solid bottom 1536-well assay plates; columns 3-4 receive only TEA buffer as 0x PGK controls. Compounds are then transferred via Kalypsys pin tool equipped with 1536-pin array (10nl slotted pins, V&P Scientific, San Diego, CA). Following addition of compound, 1ul of GAPDH (100nM final concentration, all columns) is added to initiate the reaction (this upstream coupling enzyme is necessary for in-well production of PGK substrate, 1,3-bisphosphoglycerate (1,3-BPG), which is unstable and not commercially available). The plates are then incubated at room temperature for 60 minutes. Kinase-Glo Plus reagent is added (2ul) and plates incubated for 10 minutes, before being transferred to a ViewLux high-throughput CCD imager (PerkinElmer) wherein single end-point measurements of luminescence are acquired using a clear filter. All reagents are diluted in an assay buffer consisting of 100mM TEA (pH 7.6), 5mM MgCl2 and 0.01% Tween-20.
Potency means the concentration at half of the fitted maximal effect; tags describe the fitted curve by direction and shape.

| Structure (SMILES) | Potency | activity change, negative = inhibition | outcome |
| --- | --- | --- | --- |
| O=C1NC(=O)N(Cc2ccccc2)C(=O)/C1=C\c1ccco1 | inconclusive: 31.6 µM [inhibitor, partial curve] | – | – |
| CCOC(=O)c1cccc(-[n+]2c(-c3ccccc3)cc(-c3ccccc3)cc2-c2ccccc2)c1 | – | inactive: -8.46% | – |
| O=c1c2ccccc2nc(/C=C/c2ccc(O)cc2)n1-c1cccc(O)c1 | inconclusive: 35.5 µM [inhibitor, single point] | – | – |
| CCn1nc(-c2cccs2)nc2c(=O)n(C)c(=O)nc1-2 | inconclusive: 1.58 µM [inhibitor, full curve, poor fit] | – | – |
| O=c1c(O)c(-c2ccc(O)c(O)c2)oc2cc(O)cc(O)c12 | inconclusive: 8.91 µM [inhibitor, partial curve, poor fit] | – | – |
| O=C1NC(=O)N(Cc2ccco2)C(=O)/C1=C/C=C/c1ccco1 | inconclusive: 31.6 µM [inhibitor, single point] | – | – |
| C[C@]12CCC3C(CC[C@H]4C[C@@H](O)CC[C@]34C)C1=CC[C@@H]2O (stereo not given in full) | – | inactive: -4.06% | – |
| O=[N+]([O-])c1cc(S(=O)(=O)c2ccc(O)c([N+](=O)[O-])c2)ccc1O | inconclusive: 25.1 µM [inhibitor, single point] | – | – |
| Cc1cc(C)n2nc(SC(C)C(=O)N3CCC4(CC3)OCCO4)nc2n1 (stereo not given) | inconclusive: 39.8 µM [inhibitor, single point] | – | – |
| CCCCn1c(O)c(C(CC)=NCCCN(C)C)c(=O)[nH]c1=O | – | – | inactive |
| COc1ccc(NC2=NC(C)(C)CS2)cc1 | – | inactive: 0.228% | – |
| O=C(NCc1ccccc1)c1cccn(Cc2cccc(Cl)c2)c1=O | – | inactive: -4.18% | – |
| Cc1cc(/C=C2\C(=O)NC(=O)N(c3ccccc3F)C2=O)c(C)n1-c1cc(C(=O)O)cc(C(=O)O)c1 | active: 11.2 µM | – | – |
| O=C1NC(=O)N(Cc2ccc(F)cc2)C(=O)/C1=C\C=C\c1ccco1 | – | inactive: -10.3% | – |
| CN1C(=O)/C(=C/C=C/c2ccco2)C(=O)NC1=S | active: 28.2 µM | – | – |
| O=C1NC(=O)C(=Cc2ccc(SC3CCCCC3)o2)C(=O)N1 | inconclusive: 31.6 µM [inhibitor, partial curve, poor fit] | – | – |
| COc1ccc(CN2C(=O)NC(=O)/C(=C/c3ccoc3)C2=O)cc1 | inconclusive: 25.1 µM [inhibitor, partial curve, poor fit] | – | – |
| Cc1c(C(c2ccc(F)cc2)c2c(O)c3ccccc3oc2=O)c(=O)n(-c2ccccc2)n1C (stereo not given) | inactive | – | – |
| O=C1NC(=O)N(c2ccc(Br)cc2)C(=O)/C1=C/c1ccsc1 | – | – | inactive |
| O=c1cc(C(F)(F)F)c2cc3c4c(c2o1)CCCN4CCC3 | – | inactive: -2.69% | – |
| O=C1NC(=O)N(c2cccc(Cl)c2)C(=O)/C1=C\c1ccc(Sc2nc3ccccc3[nH]2)o1 | inconclusive: 15.8 µM [inhibitor, partial curve, poor fit] | – | – |
| CCC1(O)C(=O)OCc2c1cc1n(c2=O)Cc2cc3cc(O)ccc3nc2-1 (stereo not given) | inconclusive: 31.6 µM [inhibitor, partial curve, poor fit] | – | – |

| Structure (SMILES) | Potency | activity change, negative = inhibition | outcome |
| --- | --- | --- | --- |
| O=c1cc(-c2ccc(O)c(O)c2)oc2cc(O)cc(O)c12 | inconclusive: 28.2 µM [inhibitor, single point] | – | – |
| CC(Cc1ccc(O)cc1)NCC(O)c1ccc(O)c(O)c1 (stereo not given) | inconclusive: 17.8 µM [inhibitor, partial curve, poor fit] | – | – |
| CCN(CC)P(=O)(NC(=O)C(Cl)(Cl)Cl)N(CC)CC.[Cl-].[Cl-].[Cl-].[Nd+3] | inconclusive: 28.2 µM [inhibitor, partial curve] and inconclusive: 20 µM [inhibitor, partial curve] | – | – |
| COc1ccc(NP2(=O)OCC(C)(N)CO2)cc1 (stereo not given) | – | inactive: -8.89% | – |
| Cc1ccc(-c2cc(-c3ccccc3)cc(-c3ccccc3)[n+]2-c2ccccc2)cc1 | – | inactive: -3.54% | – |
| NC1CCc2cc(O)c(O)cc2C1 (stereo not given) | – | inactive: -8.11% | – |
| CCNc1cc(N2CCN(C)CC2)ccc1[N+](=O)[O-] | – | – | inactive |
| CC(=NCCCn1ccnc1)c1c(O)n(-c2ccccc2)c(=O)[nH]c1=O | – | – | inactive |
| CCN(CC)C(=O)c1ccc2c(c1)C1C=CCC1C(C(=O)O)N2 (stereo not given) | active: 17.8 µM | – | – |
| CN(C)c1ccc(/C=C/C=C2/C(=O)NC(=O)N(c3ccccc3)C2=O)cc1 | inconclusive: 8.91 µM [inhibitor, partial curve, poor fit] | – | – |
| Cc1cc(/C=C2\C(=O)NC(=O)N(c3cccc(F)c3)C2=O)c(C)n1-c1cc(C(=O)O)cc(C(=O)O)c1 | inconclusive: 22.4 µM [inhibitor, single point] | – | – |
| O=c1[nH]c(=S)[nH]c(O)c1N=Nc1ccc(S(=O)(=O)N2CCOCC2)cc1 | inconclusive: 25.1 µM [inhibitor, partial curve, poor fit] | – | – |
| O=C(Nc1ccc(F)c([N+](=O)[O-])c1)c1cccn(Cc2ccccc2)c1=O | – | inactive: 7.01% | – |
| O=C(O)Cn1cc(/C=C2\C(=O)NC(=O)N(Cc3ccco3)C2=O)c2ccccc21 | inconclusive: 20 µM [inhibitor, partial curve] | – | – |
| CN(C(=O)CNC(=O)OCc1ccccc1)c1ccc(Br)cc1C(=O)c1ccccc1Cl | – | inactive: 5.05% | – |
| CN(C)[C@@H]1C(=O)C(C(N)=O)=C(O)[C@@]2(O)C(=O)C3=C(O)c4c(O)cccc4[C@@](C)(O)[C@H]3[C@H](O)[C@@H]12 | inconclusive: 15.8 µM [inhibitor, partial curve, poor fit] and inconclusive: 25.1 µM [inhibitor, partial curve, poor fit] | – | – |
| O=C(COc1cc(Cl)ccc1Cl)Nc1ccc(Cl)cc1C(=O)c1ccccc1 | – | inactive: -1.05% | – |
| CCOc1ccc(N2C(=O)/C(=C/c3ccc(C)o3)C(=O)NC2=S)cc1 | inconclusive: 35.5 µM [inhibitor, single point] | – | – |
| C=CCn1c(O)c(C(CC)=Nc2ccc3c(c2)CCC3)c(=O)[nH]c1=O | inconclusive: 20 µM [inhibitor, partial curve, poor fit] | – | – |
| COC(=O)C1=C(c2cccc(C#N)c2)C[C@@H]2CC[C@H]1N2C(=O)NCCc1ccccc1 | – | inactive: 2.52% | – |
| CC[C@H](C)/C=C(C)/C=C/C1=CC2=C(Cl)C(=O)[C@](C)(OC(C)=O)C(=O)C2=CO1 | inconclusive: 22.4 µM [inhibitor, partial curve, poor fit] | – | – |
| O=C(O)c1ccc2c(c1)C1C(Cl)C(Sc3ccccc3[N+](=O)[O-])CC1C(c1cccc([N+](=O)[O-])c1)N2 (stereo not given) | inconclusive: 31.6 µM [inhibitor, partial curve, poor fit] | – | – |

| Structure (SMILES) | Potency | activity change, negative = inhibition | outcome |
| --- | --- | --- | --- |
| CCn1ncc(-c2ccnc3cc(C(=O)O)nn23)c1C | inconclusive: 44.7 µM [inhibitor, single point] | – | – |
| CCN1C(=O)C(=C/C=C/c2ccco2)C(=O)N(CC)C1=S | inconclusive: 22.4 µM [inhibitor, partial curve, poor fit] | – | – |
| CC(=O)c1ccc2c(c1)C1C(Cl)C(Sc3ccccc3[N+](=O)[O-])CC1C(C(=O)O)N2 (stereo not given) | inconclusive: 15.8 µM [inhibitor, partial curve, poor fit] | – | – |
| CN(C)C(=O)Oc1ccc(OCc2nc3ccccc3[nH]2)cc1 | inconclusive: 22.4 µM [inhibitor, partial curve, poor fit] | – | – |
| Cc1cc(OCC(=O)N2CCN(CCc3ccncc3)CC2)cc(C)c1Cl | – | inactive: -9.2% | – |
| CCCCCn1c(NC(=O)c2ccco2)c(C(=O)OCC)c2nc3ccccc3nc21 | inconclusive: 35.5 µM [inhibitor, single point] | – | – |
| Nc1nonc1C(=O)N/N=C/c1ccc([N+](=O)[O-])o1 | inconclusive: 39.8 µM [inhibitor, partial curve, poor fit] | – | – |
| CCn1nc(-c2ccccc2)nc2c(=O)n(C)c(=O)nc1-2 | inconclusive: 1.58 µM [inhibitor, full curve, poor fit] | – | – |
| CCCCN1C(=O)/C(=C/C=C/c2ccco2)C(=O)NC1=S | inconclusive: 20 µM [inhibitor, partial curve, poor fit] | – | – |
| Cc1cc(/C=C2\C(=O)NC(=O)N(Cc3ccco3)C2=O)c(C)n1-c1ccc(C(=O)O)cc1 | inconclusive: 25.1 µM [inhibitor, partial curve, poor fit] | – | – |
| CCn1c(CN2CCN(C)CC2)nc2ccccc21 | – | inactive: -6.39% | – |
| O=C(c1ccccc1)C(Cc1ccccc1)N1CCOCC1 (stereo not given) | – | inactive: -5.22% | – |
| O=C1NC(=S)N(c2ccc(F)cc2)C(=O)/C1=C/c1ccccc1O | – | inactive: 6.81% | – |
| CCC(=O)Nc1cc(C(=O)O)ccc1S(=O)(=O)c1ccc(C)cc1 | inconclusive: 17.8 µM [inhibitor, partial curve, poor fit] | – | – |
| O=C(Nc1ccc2c(c1)OCO2)c1cccn(Cc2ccc(F)cc2)c1=O | – | inactive: 1.84% | – |
| CC1(C)OC(c2ccccc2)=C/C(=C/C=C2C(=O)NC(=O)NC2=O)O1 | inconclusive: 28.2 µM [inhibitor, partial curve, poor fit] | – | – |
| Cn1cccc1/C=C1\C(=O)NC(=O)N(Cc2ccco2)C1=O | inconclusive: 15.8 µM [inhibitor, partial curve, poor fit] | – | – |
| COCCOC(=O)c1c(C)n(C)c2ccc(OC(=O)N(C)C)cc12 | inconclusive: 35.5 µM [inhibitor, single point] | – | – |
| Cc1cc(/C=C2\C(=O)NC(=O)N(Cc3ccccc3Cl)C2=O)c(C)n1-c1ccc(C(=O)O)cc1 | inconclusive: 39.8 µM [inhibitor, single point] | – | – |
| Cc1cc(/C=C2/C(=O)NC(=O)N(Cc3ccco3)C2=O)c(C)n1-c1ccc(C(=O)O)cc1 | inconclusive: 31.6 µM [inhibitor, partial curve] | – | – |
| Cc1cc(/C=C2\C(=O)NC(=O)N(Cc3ccccc3)C2=O)c(C)n1-c1ccc(Cl)c(C(=O)O)c1 | active: 12.6 µM | – | – |
